Test results as given in PubChem BioAssay AID1745845 (National Center for Advancing Translational Sciences (NCATS), 2022).
About 2,600 (0.72%) of roughly 360,000 compounds were called active. Inconclusive means that the source gave no clear call. Such entries were picked first, then a sample of the others. Calls follow the shape of the dose curve; as a rule, active = well fitted inhibition curve with a large enough effect; inconclusive = small, poorly fitted or top-dose-only effect; inactive = no such curve, though single readings can be large or run the other way. A potency beside an inconclusive call is a rough fit, not a confirmed value.

experiment: Primary qHTS for Inhibitors of ATXN expression; details: HEK-293 ATXN2-luciferase reporter, luminescence, 24 h; activity change, negative = inhibition: at 57 µM (top of the series); also: nearly all actives have a fitted effect of over 55% in size
How it was run: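 qHTS (up to 57 uM final) was run with 24 h compound exposure of reporter cells at 37 °C. Each well was multiplexed: SteadyGlo luminescence measured ATXN2-luciferase expression after a fluorogenic Gly-Phe-AFC viability readout (25 uM final).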
% is scaled to controls: 0 for no effect and ±100 for the full control effect; potency is read from the fitted curve at half-maximal effect; tags tell the direction and shape of the fitted curve.

| SMILES | Potency | activity change, negative = inhibition |
| --- | --- | --- |
| COC(=O)Nc1cc(C)n(-c2ccccc2)n1 | inconclusive: 5.32 µM [inhibitor, partial curve, poor fit] |  |
| CC1(C)C(=O)C=CC(=O)C(C)(C)C(=O)C=CC(=O)C(C)(C)C2=CC=C(O2)C(C)(C)C(=O)C=CC1=O | active: 25.1 µM |  |
| CCC(C)(C)n1nnnc1C(c1ccc2ncccc2c1)N1CCN(c2nc3ccccc3s2)CC1 (configuration not stated) | inconclusive: 28.2 µM [inhibitor, single point] |  |
| CCc1nn(-c2cc(Oc3cccc4ccccc34)nc(-c3ccccc3)n2)c(N)c1C#N | inconclusive: 8.91 µM [inhibitor, partial curve] |  |
| CCOC(=O)c1ccc2ncc(C(=O)OCC)c(Nc3ccc(N4CCOCC4)cc3)c2c1 | active: 22.4 µM |  |
| CCN(C(=O)c1cc2c(=O)[nH]c3ccc(C)cc3c2s1)c1ccccc1F | inactive |  |
| O=C(Cc1ccccc1)N/N=C/c1cc(Br)cc(Br)c1O | inconclusive: 11.2 µM [inhibitor, partial curve, poor fit] |  |
| O=C(NCCN1CCN(C(=O)c2cccs2)CC1)C(=O)Nc1ccc(Br)cc1 | inactive |  |
| COc1ccc(-c2coc3c(C(=O)N4CCN(C)CC4)cccc23)c(C)c1 | inactive |  |
| Cc1ccc(Nc2nc(N)nc(CSc3nc4ccccc4s3)n2)cc1 | inconclusive: 39.8 µM [inhibitor, single point] |  |
| CC(C)Nc1nc(Cl)nc(N(C#N)CN2C(=O)c3ccccc3C2=O)n1 | inconclusive: 33.6 µM [inhibitor, partial curve, poor fit] |  |
| Cc1ccc2sc(N(CCCN(C)C)C(=O)c3ccc(Br)s3)nc2c1C | active: 20 µM |  |
| Cc1ccc(-c2c[n+](CC(=O)c3ccc(Br)cc3)c3n2CCCCC3)cc1 | inconclusive: 35.5 µM [inhibitor, single point] |  |
| N#Cc1c2c(c(-c3ccccc3Cl)[nH]c1=S)CCCC2 | inactive |  |
| O=C1c2ccccc2C(=O)N1c1ccc(Cl)cn1 | inconclusive: 25.1 µM [inhibitor, partial curve, poor fit] |  |
| COc1ccc(CNc2ccc(C)c(C)c2)cc1 | inactive |  |
| CCOC(=O)c1ccc2c(c1)nc(COc1ccc3ccccc3c1)n2CC | inconclusive: 20 µM [inhibitor, partial curve, poor fit] |  |
| O=C(Nc1ccc(SC(F)F)cc1)c1cc(-c2ccncc2)nc2ccccc12 | inconclusive: 20 µM [inhibitor, single point] |  |
| Cc1cc(N(C)C)c(C#N)c(N2CCOCC2)n1 | inconclusive: 31.6 µM [inhibitor, partial curve, poor fit] |  |
| Cc1ccc(N(CCC#N)C(=O)CCl)cc1C | inconclusive: 11.2 µM [inhibitor, single point] |  |
| O=C(NCC1CCCO1)c1ccc(Cn2c(=S)[nH]c3ccccc3c2=O)cc1 (configuration not stated) | inconclusive: 37.7 µM [inhibitor, single point] |  |

| SMILES | Potency | activity change, negative = inhibition |
| --- | --- | --- |
| O=[N+]([O-])c1c(Nc2ccccn2)cc(Cl)c2nonc12 | active: 28.2 µM |  |
| O=C(CCCN1CCOC(c2ccccc2)C1)c1ccc(F)cc1 (configuration not stated) |  | inconclusive: -39.7% [inhibitor] |
| CS(=O)(=O)c1ncc(Cl)c(C(=O)Nc2ccc3ccccc3c2)n1 | inconclusive: 39.8 µM [inhibitor, single point] |  |
| CCOc1cc(/C=C/c2ccc3cccc([N+](=O)[O-])c3n2)ccc1OCC(=O)N(C)C | inconclusive: 2.99 µM [inhibitor, full curve, poor fit] |  |
| CCOc1ccc(CN2CCN(Cc3cc4c(cc3Cl)OCO4)CC2CCO)cc1 (configuration not stated) | inactive |  |
| C/C(=N\NC(=O)c1cc(-c2cccs2)nc2ccccc12)c1ccccn1 | active: 2.82 µM |  |
| CCCCc1ccc(NS(=O)(=O)c2cc3c4c(c2)CC(=O)N4CCC3)cc1 | inconclusive: 25.1 µM [inhibitor, single point] |  |
| COc1cc(Nc2ncc(F)c(Nc3ccc4c(n3)N(COP(=O)(O)O)C(=O)C(C)(C)O4)n2)cc(OC)c1OC | inconclusive: 19.3 µM [inhibitor, partial curve, poor fit] |  |
| O=C(Nc1ccc(F)c(F)c1)c1cnc(-c2ccccc2)nc1-c1ccccc1 | inconclusive: 31.6 µM [inhibitor, single point] |  |
| FC(F)(F)c1cnc(N2CCCN(C(=S)Nc3ccccc3)CC2)c(Cl)c1 | inconclusive: 10 µM [inhibitor, partial curve, poor fit] |  |
| O=C(CCCOc1ccccc1)Nc1ccccc1C(F)(F)F | inconclusive: 7.08 µM [inhibitor, single point] |  |
| CC(C)(C)OC(=O)NCc1ccc(NC(=O)c2nc[nH]c2C(=O)N[C@@H](Cc2ccccc2)C(=O)OCc2ccccc2)cc1 | inconclusive: 25.1 µM [inhibitor, single point] |  |
| N#Cc1ccc(-c2nc3cc(Cl)ccc3c(=O)n2O)cc1 | inconclusive: 20 µM [inhibitor, partial curve] |  |
| COC(=O)CSc1ncnc2c1sc1nc3c(cc12)COC(C)(C)C3 | inconclusive: 3.36 µM [inhibitor, full curve, poor fit] |  |
| COc1ccc(NC(=O)CSc2nc3ccccc3c(=O)n2CCC(=O)NC2CCCCC2)c(OC)c1 | inactive |  |
| CN(C(=O)c1cnc(N2CCN(c3ncccn3)CC2)c2ccccc12)c1ccc(Cl)cc1 | inconclusive: 39.8 µM [inhibitor, single point] |  |
| C[C@H](CO)N1C[C@H](C)[C@@H](CN(C)S(=O)(=O)c2ccc(Cl)cc2)Oc2ccc(NS(=O)(=O)c3ccccc3)cc2CC1=O | inconclusive: 31.6 µM [inhibitor, single point] |  |
| C=C1CCC[C@]2(C)C[C@H]3OC(=O)C(CN4CC(C)OC(C)C4)[C@H]3C[C@@H]12 (some centres not stated) | inconclusive: 22.4 µM [inhibitor, single point] |  |
| Cc1cc2c(cc1C)N(Cc1ccc(Cl)cc1)C1=NCCCN12 | inconclusive: 13.4 µM [inhibitor, partial curve, poor fit] |  |
| Cc1nc2nc(CNC(=O)c3cccc(F)c3)nn2c(C)c1CCC(=O)Nc1cccc(Cl)c1 | inconclusive: 6.31 µM [inhibitor, partial curve, poor fit] |  |
| CC(C)(C)NC(=S)N1CCC2CC1c1c(Cl)cccc12 (configuration not stated) | inactive |  |

| SMILES | Potency | activity change, negative = inhibition |
| --- | --- | --- |
| COCC1CCN(C(=O)c2cc(COc3cccc4cnccc34)on2)CC1 | inconclusive: 22.4 µM [inhibitor, partial curve, poor fit] |  |
| CN1Cc2c(N3CCOCC3)nc3sc(C(=O)c4ccccc4)c(N)c3c2CC1(C)C | inconclusive: 10 µM [inhibitor, partial curve, poor fit] |  |
| O=C(CCS(=O)(=O)c1ccccc1)N(CCCN1CCOCC1)c1nc2c(F)cccc2s1 | inconclusive: 39.8 µM [inhibitor, single point] |  |
| O=C(c1ccc(N2CCN(C(=O)c3cccc(F)c3)CC2)cc1)c1cccc(F)c1 | inconclusive: 28.2 µM [inhibitor, partial curve, poor fit] |  |
| C=CCC[C@@H](Cc1ccc(F)cc1)C(=O)OC[C@@H]1CCCN1C(=O)[C@@H](CC=C)CC(=O)N(CCO)Cc1ccccc1 | inconclusive: 25.1 µM [inhibitor, single point] |  |
| O=C1c2[nH]nc(-c3ccc(F)cc3)c2C(c2ccccc2F)N1c1ccccc1 (configuration not stated) | inconclusive: 39.8 µM [inhibitor, single point] |  |
| O=c1cc(Nc2ccc3c(c2)OCCO3)[nH]c(=O)n1-c1ccc(Br)cc1 | inconclusive: 39.8 µM [inhibitor, single point] |  |
| COCc1ccc(C(=O)NC2CCCc3c2cnn3-c2ccc(C)c(C)c2)o1 (configuration not stated) | inconclusive: 3.98 µM [inhibitor, partial curve, poor fit] |  |
| CCCCCCCN(CC)CCCC(O)c1ccc(NS(C)(=O)=O)cc1 (configuration not stated) | inconclusive: 0.172 µM [inhibitor, partial curve, poor fit] |  |
| O=C(Nc1ccc([N+](=O)[O-])cc1)Nc1ccc(Cl)cc1F | inconclusive: 31.6 µM [inhibitor, partial curve] |  |
| CCOC(=O)C1CCN(C(=O)c2c(C)oc3c2C(=O)c2ccccc2C3=O)CC1 | inconclusive: 12.6 µM [inhibitor, partial curve] |  |
| O=C(c1ccccc1)N1CCSc2sccc2C1=O | active: 4.74 µM |  |
| Cc1cc(NC(=O)c2cc(-c3ccc4c(c3)OCO4)on2)n(-c2ccccc2)n1 | inconclusive: 20 µM [inhibitor, partial curve, poor fit] |  |
| COc1ccc(CCNC(=S)NC(=O)c2ccccc2)cc1C | inactive |  |
| CCCCCC(=O)N1C[C@H](O)[C@@H](n2cc(-c3ccc(F)cc3)nn2)C[C@@H]1c1ccc(OC)cc1 | inconclusive: 25.1 µM [inhibitor, single point] |  |
| COc1ccc(NC(=O)CCn2nc(C)cc2C)cc1 | inactive |  |
| COC(=O)c1ccc(/C=C/C(=O)c2ccc(OC)c(OC)c2)cc1 | inconclusive: 37.7 µM [inhibitor, single point] |  |
| O=C(CN1CCOc2ccccc21)N1CCN(c2cccc(Cl)c2)CC1 | inconclusive: 31.6 µM [inhibitor, partial curve, poor fit] |  |
| Cn1cnc([N+](=O)[O-])c1S(=O)(=O)c1ccc(Cl)cc1 | inconclusive: 37.7 µM [inhibitor, single point] |  |
| N#Cc1cc(C(=O)c2cc(Br)ccc2O)cn(C2CCCCC2)c1=O | inconclusive: 28.2 µM [inhibitor, single point] |  |
